Data from the supplement of paper PMC3334620.
The full ranking holds about 33,000 sequences; the median of “E-score (-0.5 to 0.5)” is about -0.04, and the highest 2% start at about 0.36. Some of the results follow.

The sequences below were run against T1, Hmlalpha2 (UniProt P0CY09) (assay: PBM E-score (8-mer binding enrichment) (E-score (-0.5 to 0.5)); higher = stronger / more preferred TF binding; most listed sequences are background and not binding sites). Settings: protein concentration: 200 nM; construct: GST-full length.
T1 sequence: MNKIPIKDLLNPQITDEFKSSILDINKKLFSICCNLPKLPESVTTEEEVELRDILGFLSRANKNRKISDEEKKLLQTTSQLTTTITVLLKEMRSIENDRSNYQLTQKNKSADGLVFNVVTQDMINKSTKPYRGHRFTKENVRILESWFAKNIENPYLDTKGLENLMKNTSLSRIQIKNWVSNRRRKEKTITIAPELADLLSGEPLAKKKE
How it was run: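 Yeast transcription factors, full-length or as DNA-binding domains, were expressed with a GST tag using PURExpress in vitro transcription/translation. At about 100-200 nM they were applied to universal all-10-mer Agilent arrays, double-stranded by primer extension on fresh or once-stripped slides. Fluorescent anti-GST detected bound protein, and masliner normalised the scans. E-scores for ungapped eight-base words, pooled with reverse complements, came from the Universal PBM Analysis Suite.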

Row | Sequence | PBM E-score
1 | AATCCGGC | -0.153
2 | ACAAACAA | 0.251
3 | CTGCATCC | -0.25
4 | ATATATTC | 0.108
5 | CCACCTGC | -0.136
6 | CAGTCATC | -0.169
7 | CCTTTCTC | -0.162
8 | CGTACCGA | -0.135
9 | CATAGAGG | -0.0117
10 | AGCATTAT | 0.189
11 | GCGGGTAA | -0.074
12 | GGCCGTAC | -0.00809
13 | ACCCGAAA | -0.206
14 | ACGAGGTC | -0.00914
15 | GGGTATTA | 0.0613
16 | CTCATTTC | -0.0194
17 | ATATGTGC | 0.00781
18 | AATTAGGC | -0.0388
19 | CGTGAACA | 0.263
20 | ATTTGCCC | -0.183
21 | ACTGGTAC | -0.0246
22 | ATACCGAG | -0.184

Row | Sequence | PBM E-score
23 | CGTCATGA | -0.026
24 | ATAGCAGC | -0.22
25 | AAATAAGT | 0.133
26 | ATACATAC | 0.386
27 | ACCCTAGC | -0.154
28 | GTAGTGGA | 0.106
29 | CCCTCCTC | -0.325
30 | ACCACTCG | 0.0845
31 | AGTCTTTG | -0.0399
32 | TCTTTCAA | 0.00306
33 | GGCCTTGA | -0.162
34 | CTTTGACC | -0.0661
35 | AATCTCTC | -0.00124
36 | ACGTACCA | 0.109
37 | CGGATTCA | -0.216
38 | GCATCGGA | 0.0192
39 | ACGGTTAG | -0.159
40 | GCTGAGGA | -0.237
41 | TAACAGCA | 0.273
42 | AACAGCAC | 0.2
43 | AGGAATGC | -0.189
44 | AATCCGAG | -0.0815

Row | Sequence | PBM E-score
45 | AAGCTCTG | -0.0475
46 | GTTTAGTA | 0.274
47 | CTAAGCAA | -0.078
48 | ACGAATTG | 0.0132
49 | AGTTTCTG | -0.0525
50 | GAGCTTCA | -0.0187
51 | GTTTTGCA | 0.142
52 | CGAACGAA | -0.106
53 | AGCTCTCA | -0.0711
54 | CCCAGTGC | -0.128
55 | GATCGAAC | -0.0112
56 | GCGGTTAC | 0.0707
57 | CAAGTTTA | 0.111
58 | GAGCTCCA | -0.144
59 | AGCATCAC | -0.0807
60 | ATAATTAA | 0.346
61 | ACAAGTGT | 0.172
62 | ACATGGAG | 0.262
63 | AAGACATT | -0.104
64 | GATCGGTA | -0.032
65 | AGCAGGGC | -0.104
66 | ACGATCTG | -0.247

Row | Sequence | PBM E-score
67 | GCACCGCC | -0.256
68 | GCATGAAA | 0.104
69 | CTGGTATC | -0.0621
70 | CGCCCTGA | -0.122
71 | ATAAACAC | 0.365
72 | GCCAAAAA | 0.0368
73 | TGGGACAA | 0.0458
74 | CGCCGATC | -0.0788
75 | ACGAACAG | 0.0265
76 | ACATTCCT | -0.0716
77 | AAGAACCG | 0.117
78 | CATCTCTA | 0.00595
79 | GCAACCTA | 0.0134
80 | GCGGTTCA | -0.187
81 | GACCGCAA | -0.00729
82 | CCAGCACG | -0.00777
83 | AGCCGAAC | -0.145
84 | CCCCCAAG | -0.224
85 | CTCAGGAC | -0.149
86 | CCTCCAGG | -0.335
